Sequences and labels used below:
T1: RBFOX1 RRM (Homo sapiens, UniProt Q9NWB1 109-208)
T1 sequence: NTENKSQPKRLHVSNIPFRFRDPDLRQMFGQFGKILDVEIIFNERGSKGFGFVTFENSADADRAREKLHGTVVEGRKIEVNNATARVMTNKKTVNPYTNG

B1: GCGUUUA (DNA:RNA)
RNA: GGGAGACCGGAAUUCAGAUUGUCCGCGUUUAUUAAAUCCCGUCGUAGCCACCA
DNA 1: CAATCTGAATTCCGGTCTCCC
DNA 2: TGGTGGCTACGACGGGATT
B2: GAUGAUC (DNA:RNA)
RNA: B1 RNA with C26A, G27U, U28G, U29A, A31C
DNA 1: CAATCTGAATTCCGGTCTCCC
DNA 2: TGGTGGCTACGACGGGATT
B3: UGAGGCU (DNA:RNA)
RNA: GGGAGACCGGAAUUCAGAUUGUCCUGAGGCUUUAAAUCCCGUCGUAGCCACCA
DNA 1: CAATCTGAATTCCGGTCTCCC
DNA 2: TGGTGGCTACGACGGGATT
B4: CUCGGGU (DNA:RNA)
RNA: B3 RNA with U25C, G26U, A27C, C30G
DNA 1: CAATCTGAATTCCGGTCTCCC
DNA 2: TGGTGGCTACGACGGGATT
B5: UUCCUAC (DNA:RNA)
RNA: B1 RNA with G25U, C26U, G27C, U28C, U30A, A31C
DNA 1: CAATCTGAATTCCGGTCTCCC
DNA 2: TGGTGGCTACGACGGGATT
B6: CCUCGCA (DNA:RNA)
RNA: B1 RNA with G25C, G27U, U28C, U29G, U30C
DNA 1: CAATCTGAATTCCGGTCTCCC
DNA 2: TGGTGGCTACGACGGGATT
B7: GUAGCGG (DNA:RNA)
RNA: B3 RNA with U25G, G26U, G29C, C30G, U31G
DNA 1: CAATCTGAATTCCGGTCTCCC
DNA 2: TGGTGGCTACGACGGGATT
B8: AGCAUGU (DNA:RNA)
RNA: B3 RNA with U25A, A27C, G28A, G29U, C30G
DNA 1: CAATCTGAATTCCGGTCTCCC
DNA 2: TGGTGGCTACGACGGGATT
B9: UUCAAAA (DNA:RNA)
RNA: B1 RNA with G25U, C26U, G27C, U28A, U29A, U30A
DNA 1: CAATCTGAATTCCGGTCTCCC
DNA 2: TGGTGGCTACGACGGGATT
B10: CGAUAUA (DNA:RNA)
RNA: B1 RNA with G25C, C26G, G27A, U29A
DNA 1: CAATCTGAATTCCGGTCTCCC
DNA 2: TGGTGGCTACGACGGGATT
B11: UUGUUUU (DNA:RNA)
RNA: B1 RNA with G25U, C26U, A31U
DNA 1: CAATCTGAATTCCGGTCTCCC
DNA 2: TGGTGGCTACGACGGGATT
B12: ACCUGGA (DNA:RNA)
RNA: B1 RNA with G25A, G27C, U29G, U30G
DNA 1: CAATCTGAATTCCGGTCTCCC
DNA 2: TGGTGGCTACGACGGGATT
B13: UGCCGGC (DNA:RNA)
RNA: B3 RNA with A27C, G28C, C30G, U31C
DNA 1: CAATCTGAATTCCGGTCTCCC
DNA 2: TGGTGGCTACGACGGGATT
B14: ACACGUG (DNA:RNA)
RNA: B1 RNA with G25A, G27A, U28C, U29G, A31G
DNA 1: CAATCTGAATTCCGGTCTCCC
DNA 2: TGGTGGCTACGACGGGATT
B15: UAGAAAG (DNA:RNA)
RNA: B1 RNA with G25U, C26A, U28A, U29A, U30A, A31G
DNA 1: CAATCTGAATTCCGGTCTCCC
DNA 2: TGGTGGCTACGACGGGATT
B16: CGGGAGU (DNA:RNA)
RNA: B3 RNA with U25C, A27G, G29A, C30G
DNA 1: CAATCTGAATTCCGGTCTCCC
DNA 2: TGGTGGCTACGACGGGATT
B17: UCGACUG (DNA:RNA)
RNA: B1 RNA with G25U, U28A, U29C, A31G
DNA 1: CAATCTGAATTCCGGTCTCCC
DNA 2: TGGTGGCTACGACGGGATT
B18: CUUCAUG (DNA:RNA)
RNA: B1 RNA with G25C, C26U, G27U, U28C, U29A, A31G
DNA 1: CAATCTGAATTCCGGTCTCCC
DNA 2: TGGTGGCTACGACGGGATT
B19: AUCGGCC (DNA:RNA)
RNA: B3 RNA with U25A, G26U, A27C, U31C
DNA 1: CAATCTGAATTCCGGTCTCCC
DNA 2: TGGTGGCTACGACGGGATT
B20: GUGACCC (DNA:RNA)
RNA: B1 RNA with C26U, U28A, U29C, U30C, A31C
DNA 1: CAATCTGAATTCCGGTCTCCC
DNA 2: TGGTGGCTACGACGGGATT
B21: CAGCCCU (DNA:RNA)
RNA: B3 RNA with U25C, G26A, A27G, G28C, G29C
DNA 1: CAATCTGAATTCCGGTCTCCC
DNA 2: TGGTGGCTACGACGGGATT
B22: UGAGUAA (DNA:RNA)
RNA: B3 RNA with G29U, C30A, U31A
DNA 1: CAATCTGAATTCCGGTCTCCC
DNA 2: TGGTGGCTACGACGGGATT
B23: GGAGUCC (DNA:RNA)
RNA: B3 RNA with U25G, G29U, U31C
DNA 1: CAATCTGAATTCCGGTCTCCC
DNA 2: TGGTGGCTACGACGGGATT
B24: CGACCCU (DNA:RNA)
RNA: B3 RNA with U25C, G28C, G29C
DNA 1: CAATCTGAATTCCGGTCTCCC
DNA 2: TGGTGGCTACGACGGGATT
B25: GAAAUGU (DNA:RNA)
RNA: B1 RNA with C26A, G27A, U28A, U30G, A31U
DNA 1: CAATCTGAATTCCGGTCTCCC
DNA 2: TGGTGGCTACGACGGGATT
B26: UGGCAAG (DNA:RNA)
RNA: B3 RNA with A27G, G28C, G29A, C30A, U31G
DNA 1: CAATCTGAATTCCGGTCTCCC
DNA 2: TGGTGGCTACGACGGGATT
B27: AGGGUUC (DNA:RNA)
RNA: B1 RNA with G25A, C26G, U28G, A31C
DNA 1: CAATCTGAATTCCGGTCTCCC
DNA 2: TGGTGGCTACGACGGGATT
B28: CCGCAGC (DNA:RNA)
RNA: B1 RNA with G25C, U28C, U29A, U30G, A31C
DNA 1: CAATCTGAATTCCGGTCTCCC
DNA 2: TGGTGGCTACGACGGGATT
B29: AAUAUGG (DNA:RNA)
RNA: B1 RNA with G25A, C26A, G27U, U28A, U30G, A31G
DNA 1: CAATCTGAATTCCGGTCTCCC
DNA 2: TGGTGGCTACGACGGGATT
B30: GAGCGAA (DNA:RNA)
RNA: B1 RNA with C26A, U28C, U29G, U30A
DNA 1: CAATCTGAATTCCGGTCTCCC
DNA 2: TGGTGGCTACGACGGGATT
B31: GAUUUCA (DNA:RNA)
RNA: B1 RNA with C26A, G27U, U30C
DNA 1: CAATCTGAATTCCGGTCTCCC
DNA 2: TGGTGGCTACGACGGGATT

Numbering of substitutions follows the chain as printed; changes in the protein carry UniProt numbers. Some of the results follow.

This test addresses T1, RBFOX1 RRM. The test is described as follows: EMSA; HiTS-Eq, 1 nM pool, 10 min; buffer printed only for the single-RNA assays: 10 mM Tris pH 7.5, 150 mM NaCl, 3.4 mM EDTA, 0.001% NP-40, 30 C. The conditions noted are these: tags: His6 N-terminal (pET28a); label: 5' 32P. An outline of the steps: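 These values rest on relative association constants, computed from read-count changes of each RNA species versus the control reaction and normalised to the cognate motif. Reads came from free RNA recovered by 8% native PAGE after purified RbFox RRM (wild type or mutant) at increasing concentrations was equilibrated for 10 min in 50 µL with 1 nM of a 5′-radiolabelled pool with 7 randomized nucleotides and DNA-annealed flanks.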
Take B1: the binding signal is 0.0076 KA relative to UGCAUGU.

On to B2, for which the binding signal is 0.0209 KA relative to UGCAUGU. Consider B3, for which the binding signal was 0.0155 KA relative to UGCAUGU. The value for B4 was 0.00166 KA relative to UGCAUGU. As to B5, the binding signal is 0.00566 KA relative to UGCAUGU. Take B6: the binding signal is 0.0153 KA relative to UGCAUGU. Next, B7: 0.0122 KA relative to UGCAUGU; B8: 0.738 KA relative to UGCAUGU; B9: 0.003 KA relative to UGCAUGU. Next, B10: 0.000551 KA relative to UGCAUGU.

Consider B11, for which the binding signal was 0.0227 KA relative to UGCAUGU. Next, B12: 0.00688 KA relative to UGCAUGU. The value for B13 was 0.0185 KA relative to UGCAUGU; that for B14 was 0.00337 KA relative to UGCAUGU; that for B15 was 0.0158 KA relative to UGCAUGU. On to B16, for which the binding signal was 0.0213 KA relative to UGCAUGU. Next, B17: 0.0216 KA relative to UGCAUGU; B18: 0.0106 KA relative to UGCAUGU; B19: 0.0117 KA relative to UGCAUGU.

Take B20: the binding signal is 0.00703 KA relative to UGCAUGU. Next, B21: 0.000496 KA relative to UGCAUGU. The value for B22 was 0.0193 KA relative to UGCAUGU; that for B23 was 0.0187 KA relative to UGCAUGU. Take B24: the binding signal was 0.00228 KA relative to UGCAUGU. In the case of B25, the binding signal was 0.0132 KA relative to UGCAUGU. The value for B26 was 0.0199 KA relative to UGCAUGU. Turning to B27, the binding signal was 0.0208 KA relative to UGCAUGU. As to B28, the binding signal was 0.00553 KA relative to UGCAUGU. The value for B29 was 0.00711 KA relative to UGCAUGU. The value for B30 was 0.0114 KA relative to UGCAUGU. For the molecule B31, the binding signal was 0.0102 KA relative to UGCAUGU.

(Values after publication PMC9911399, “Two distinct binding modes provide the RNA-binding protein RbFox with extraordinary sequence specificity”.)
